Laboratory results reported in publication PMC10215934, “Daptomycin Pharmacokinetics in Blood and Wound Fluid in Critical Ill Patients with Left Ventricle Assist Devices” (Antibiotics, 2023).
“And” between values parts separate entries of the source, which are not always exact repeats. Identical values can stand only once. Like-named read-outs stand apart in the source and are kept apart here.

Key:
[1] = Safety: adverse events and laboratory values under daptomycin; format: in vivo, human; settings: for Lactatdehydrogenase / creatinine kinase: mean ± SD; for creatinine kinase: n = 9
Description: Further, we collected patient demographics, clinical and laboratory data, microbiological findings, the duration of anti-infective therapy, and clinical outcome information. The institutional review board approved the study, and written informed consent was obtained from all patients before participation.

[2] = for stability of stock solutions (time at > 90% of baseline concentration) / stability of serum samples (time at > 90% of baseline concentration): HPLC-UV; for stability of serum samples (time at > 90% of baseline concentration): human serum
Method: Optional: serum patient sample with daptomycin (grey curve 300 nm, black curve 370 nm).
Daptomycin concentration [mg/l] […]
validation, stability was tested in human serum and water for injection at different conditions, including room temperature, refrigeration at 4° C, and freezing at -20° C as well as -80° C. For stability testing, two samples were thawed out and subsequently analyzed. Stability was defined by the time at which the samples remained at a concentration of > 90% for their baseline concentrations.
(1 picture or pasted object on this page, not shown here)

[3] = cited from earlier work
[4] = Penetration of daptomycin from blood into wound fluid (AUCdrain/AUCblood, Rmcorr correlation); format: in vivo, human; settings: for PR: penetration ratio (AUCdrain/AUCblood): n = 9
Method: (§1) Samples were taken following the schedule below (Table 3).
All daptomycin values in the blood serum and wound fluids, from pleura and mediastinum, were examined among themselves and over time using a repeated measure correlation. Continuous measures were summarized as the means, standard deviation, medians, and interquartile ranges (IQR) according to the data distribution. The normality of the distribution was assessed by investigating skewness and kurtosis, as well as QQ graphs, box plots, and histograms. The association between blood and wound fluid daptomycin mean levels was examined using repeated measures correlation (R package rmcorr; version 0.5.4), which determined the relationship between two continuous variables while controlling for individual variances. The rmcorr correlation coefficient is a common statistical method for paired measurements assessed on two or more occasions for multiple individuals. Similar to the Pearson correlation coefficient, the rmcorr coefficient (rrm) ranges from −1 to +1 and reports the strength of the linear association between two variables. Linear mixed effect models assessed the difference in the mean daptomycin concentration in the blood serum during the three-time points with random intercepts; the slopes were set as fixed parameters. A two-tailed p-value below 0.05 was considered statistically significant. Statistical analyses were made using the rmcorr package in R statistical software version 3.6.4 and the SPSS version 27.0 (IBM SPSS Statistics for Windows, IBM Corp., Armonk, NY, USA).

[5] = Daptomycin pharmacokinetics in blood serum, HPLC-UV; settings: for Cminblood / half-life: LVAD patients, 5-8 mg/kg iv once daily, mean ± SD, n = 9; for level at 1 h / level at 12 h / level at 24 h / half-life: human, in vivo, iv; for level at 1 h / level at 12 h / level at 24 h: Daptomycin concentration, blood; for half-life: t1/2blood (terminal half-life blood)
Method: (§2) This single-center prospective trial was carried out in the intensive care unit 39 of the department of anesthesia and intensive care medicine at the university hospital of Tübingen from April 2017 to March 2019. All patients scheduled for implantation of a left ventricular assist device were screened for inclusion and exclusion criteria. All patients received prophylactic antibiotic therapy, including daptomycin, during the first 5 or 7 postoperative days. Daptomycin (5 to 8 mg per kg of body weight) was infused over 30 min, once daily, at 7 a.m. Samples were taken following the schedule below (Table 3).
(§3) Blood samples were drawn from the arterial catheter already in place and considering hygiene requirements. The fluid samples from the drain systems were taken from the incorporated port under consideration of the standard hygienic procedures to avoid any contamination of the system. The samples were labeled with the number of the patient, the time of collection, and the date following the study protocol. All samples were centrifuged, and the supernatant was stored at −80 °C until dispatch to the laboratory in Heidenheim (Department of Pharmacy, General Hospital of Heidenheim). Measurements were performed using high-performance liquid chromatography with ultraviolet detection (HPLC-UV).
(§4) Daptomycin (5–8 mg per kg body weight; MSD; Switzerland) was infused intravenously once daily as part of an anti-infective regime to prevent early infections of either the implanted pump or the driveline at 7 am. Blood samples were drawn from the arterial catheter already in place, and samples of wound fluids were taken from the drainage system directly from the incorporated port before they reached the container at indicated time points, considering standard hygienic requirements.
(§5) The HPLC-UV measurement for daptomycin was conducted as part of the routine TDM program at the hospital of Heidenheim. Although data for certain target levels are sparse, there is an approach to reach AUC24/MHK >666 mg*h/L for effectivity and trough levels <24 mg/L and to minimize musculosceletal toxicity.
(§6) A detailed description of the HPLC method and validation process is included in the supplementary material (Informations S1). Briefly, a gradient method carried out the separation of daptomycin in the serum and wound fluid on a C8 reversed-phase column.

Gram-positive pathogens = test: Infections after LVAD implantation under prophylactic daptomycin; format: in vivo, human
Description: All patients were, on the day of surgery, free from infection and, after LVAD implantation, received standard intensive care. Daptomycin was used prophylactically to prevent an early Gram-positive bacteria-related infection in patients after LVAD implantation. According to the internal standard operating procedure for LVAD recipients, therapy was discontinued after five to seven days if there was no evidence of infection. Blood and wound secretions were drained from the mediastinum and sometimes one or both pleural spaces in the first three postoperative days.
as §1

[6] = Daptomycin concentration in wound (drainage) fluid, HPLC-UV; settings: for AUCdrain: drainage fluid, LVAD patients, 5-8 mg/kg iv once daily, HPLC-UV, mean ± SD, n = 9
Method: as §2, §3, §4, §5, §6

[7] = nine LVAD patients, treatment 5-10 days
[8] = human, in vivo, iv, 6 mg/kg, Daptomycin concentration, drainage
[9] = human, in vivo, iv, 8 mg/kg, Daptomycin concentration, drainage

## CCCCCCCCCC(=O)N[C@@H](Cc1c[nH]c2ccccc12)C(=O)N[C@H](CC(N)=O)C(=O)N[C@@H](CC(=O)O)C(=O)N[C@@H]1C(=O)NCC(=O)N[C@@H](CCCN)C(=O)N[C@@H](CC(=O)O)C(=O)N[C@H](C)C(=O)N[C@@H](CC(=O)O)C(=O)NCC(=O)N[C@H](CO)C(=O)N[C@@H]([C@H](C)CC(=O)O)C(=O)N[C@@H](CC(=O)c2ccccc2N)C(=O)O[C@@H]1C [Daptomycin]
[1]; day 1
  Lactatdehydrogenase: 343.9 ± 23.1 U/L
  creatinine kinase: 631.8 ± 209.2 U/L
[1]; day 2
  Lactatdehydrogenase: 299.8 ± 15.9 U/L
  creatinine kinase: 409.8 ± 193.8 U/L
[1]; day 3
  creatinine kinase: 362.6 ± 168.3 U/L
[1]; [7]
  adverse events (AEs) or serious events (SAEs): No adverse events (AEs) or serious events (SAEs) occurred
  rarer events (rhabdomyolysis, red-man syndrome, thrombocytopenia, eosinophilic pneumonia, fungal infection): No other rarer events were reported
[1]; postoperative
  Lactatdehydrogenase: 366.3 ± 29.7 U/L
  creatinine kinase: 542.9 ± 170.7 U/L
[2]; 4°C
  stability of stock solutions (time at > 90% of baseline concentration): ≥ 5 days
  stability of serum samples (time at > 90% of baseline concentration): ≥ 2 days
[2]; -20°C
  stability of stock solutions (time at > 90% of baseline concentration): ≥ 3 months
  stability of serum samples (time at > 90% of baseline concentration): ≥ 3 months
[2]; -80°C
  stability of stock solutions (time at > 90% of baseline concentration): ≥ 12 months
  stability of serum samples (time at > 90% of baseline concentration): ≥ 12 months
[2]; extracted samples, autosampler at room temperature
  time without variation in the peak area after extraction: at least 24 hours
[2]; room temperature
  stability of serum samples (time at > 90% of baseline concentration): at least 24 h
  stability of stock solutions (time at > 90% of baseline concentration): at least 24 h
[3]
  AUC24/MHK target for effectivity: > 666 µg·h/mL
[3]; documented previously
  terminal half-time (t1/2): 7 to 9 h
[3]; metanalysis
  AUC necessary for sufficient anti-microbial effects: over 666 µg*h/mL
[3]; patients with bacteraemia, complicated skin or soft-tissue infections, endovascular infections
  low Cmin associated with poorer outcomes: < 3180 ng/mL
[4]; Day 1, mean ± SD
  PR: penetration ratio (AUCdrain/AUCblood): 0.4 ± 0.1
[4]; Day 2, mean ± SD
  PR: penetration ratio (AUCdrain/AUCblood): 0.4 ± 0.1
[4]; Day 3, mean ± SD
  PR: penetration ratio (AUCdrain/AUCblood): 0.5 ± 0.1
[4]; after 48 h, mean ± SD
  AUC of the concentration in the wound fluid as % of the blood values: 40% ± 12%
[4]; after 48 h, range over patients
  AUC of the concentration in the wound fluid as % of the blood values: 23–64%
[4]; after 72 h, range over patients
  AUC of the concentration in the wound fluid as % of the blood values: 32–63%
[4]; first interval (24 h), mean ± SD
  AUC of the concentration in the wound fluid as % of the blood values: 40% ± 11%
[5]; Day 1
  Cminblood: 24100 ± 5900 ng/mL
  half-life: 14.1 ± 4 h
[5]; Day 2
  Cminblood: 29800 ± 6700 ng/mL
  half-life: 15.8 ± 3.2 h
[5]; Day 3
  Cminblood: 29900 ± 10200 ng/mL
  half-life: 20.5 ± 6.7 h
[5]; 4 mg/kg
  level at 1 h: 126000 ng/mL
  level at 12 h: 50500 ng/mL
  level at 24 h: 38600 ng/mL
[5]; 6 mg/kg
  level at 1 h: 69000 ng/mL
  level at 12 h: 41700 ng/mL
  level at 24 h: 30100 ng/mL
[5]; 8 mg/kg
  level at 1 h: 92800 ng/mL
  level at 12 h: 68400 ng/mL
  level at 24 h: 32600 ng/mL
[5]; second and third day of antibiotic administration
  Cmin in blood: > 24300 ng/mL
Gram-positive pathogens; herpes simplex virus in tracheal secretion, sepsis with Klebsiella oxytoca
  infections (any pathogen) in the nine patients: Two
Gram-positive pathogens; prophylactic daptomycin after LVAD implantation, nine patients
  infections with evidence of Gram-positive pathogens: no infections with evidence of Gram-positive pathogens
[6]; Day 1 (24 h)
  AUCdrain: 383 ± 140 µg·h/mL
[6]; Day 2 (48 h)
  AUCdrain: 512 ± 173 µg·h/mL
[6]; Day 3 (72 h)
  AUCdrain: 695 ± 291 µg·h/mL
[6]; Patient 7 (5 mg/kg), Drainage 1, Day 1 08:00, 1 h after infusion
  Daptomycin concentration, drainage: 0 mg/L
[6]; Patient 7 (5 mg/kg), Drainage 2, Day 1 08:00, 1 h after infusion
  Daptomycin concentration, drainage: 0 mg/L
[6]; Patient 9 (6 mg/kg, dialysis), Drainage 2, Day 1 08:00, 1 h after infusion
  Daptomycin concentration, drainage: 0 mg/L
[6]; all three days
  accumulation of daptomycin in the wound drains: did not observe any accumulation
[6]; human, in vivo, iv, 4 mg/kg, 1 h
  Daptomycin concentration, drainage: 10.1 mg/L
[6]; human, in vivo, iv, 4 mg/kg, 6 h
  Daptomycin concentration, drainage: 15.6 mg/L
[6]; human, in vivo, iv, 4 mg/kg, 9 h
  Daptomycin concentration, drainage: 33.2 mg/L
[6]; human, in vivo, iv, 4 mg/kg, 24 h
  Daptomycin concentration, drainage: 15 mg/L
[6]; human, in vivo, iv, 6 mg/kg, 12 h
  Daptomycin concentration, drainage: 22.5 mg/L
[6]; [8]
  level at 6 h: 38200 ng/mL and 21800 ng/mL
  level at 9 h: 31100 ng/mL
  level at 12 h: 32800 ng/mL
[6]; human, in vivo, iv, 7 mg/kg, 1 h
  Daptomycin concentration, drainage: 15.2 mg/L
[6]; human, in vivo, iv, 7 mg/kg, 3 h
  Daptomycin concentration, drainage: 20.7 mg/L
[6]; human, in vivo, iv, 7 mg/kg, 9 h
  Daptomycin concentration, drainage: 27.5 mg/L
[6]; human, in vivo, iv, 7 mg/kg, 12 h
  Daptomycin concentration, drainage: 27.3 mg/L
[6]; human, in vivo, iv, 7 mg/kg, 24 h
  Daptomycin concentration, drainage: 20.3 mg/L
[6]; human, in vivo, iv, 8 mg/kg
  level at 6 h: 24300 ng/mL
[6]; [9]
  level at 9 h: 21500 ng/mL
  level at 12 h: 20600 ng/mL
